# Measurements as given in the supplement of paper PMC8728848.
# The list shows a part of the results.
# B1: MSMEG3662-2a (Mycobacterium smegmatis), A0QYH7_MYCS2 (protein)
# chain: MGDTLTAGQKLERGGSLQSGNGAYTLTLQDDGNLVLYARDKAVWSTGTNGQDVVRAEVQTDGNFVLYTAEKPVWHTDTKGKKEVKLVLQDDRNLVLYAKDGPAWSSKTDTTEPPPPAPEPEKEAEVAPAAAEEAAPAPVAEPAPAEPAPAAPPPAPPAPRTYTVVSGDTLWAIAERFYGDGSKYQQIADASGIANPDLIHPGQVLTIP
# Columns and labels:
# Assay in all cases: glycan array binding signal (z-score within array); higher = stronger binding
# Conditions in all cases: glycan notation: IUPAC condensed, linker removed
# [1] = molecular target: GlcNAc(b1-4)GlcNAc(b1-4)GlcNAc(b1-4)GlcNAc(b1-4)GlcNAc
# Method in brief: (§1)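 Arrays were curated from the Consortium for Functional Glycomics database, 3228 in total, and kept only where the protein sequence was available. Binding is expressed as a within-array Z-score. This score was averaged across arrays of the same protein sequence at different concentrations or buffers and across linkers, and negative values can be read as non-binding.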
# [2] = molecular target: GlcNAc(b1-4)GlcNAc(b1-4)GlcNAc(b1-4)GlcNAc(b1-4)GlcNAc(b1-4)GlcNAc
# Method in brief: as §1
# [3] = molecular target: GlcNAc(b1-4)[GlcNAc(b1-6)]GalNAc
# Method in brief: as §1
# [4] = molecular target: GlcNAc(b1-6)Gal(b1-4)GlcNAc
# Method in brief: as §1
# GlcNAc(b1-6)GalNAc = molecular target: GlcNAc(b1-6)GalNAc
# Method in brief: as §1
# [5] = molecular target: GlcNAc6S(b1-3)Gal(b1-4)GlcNAc
# Method in brief: as §1
# Kdn(a2-3)Gal(b1-3)GalNAc = molecular target: Kdn(a2-3)Gal(b1-3)GalNAc
# Method in brief: as §1
# Kdn(a2-3)Gal(b1-3)GlcNAc = molecular target: Kdn(a2-3)Gal(b1-3)GlcNAc
# Method in brief: as §1
# Kdn(a2-3)Gal(b1-4)Glc = molecular target: Kdn(a2-3)Gal(b1-4)Glc
# Method in brief: as §1
# Kdn(a2-3)Gal(b1-4)GlcNAc = molecular target: Kdn(a2-3)Gal(b1-4)GlcNAc
# Method in brief: as §1
# [6] = molecular target: Kdn(a2-3)Gal(b1-4)[Fuc(a1-3)]GlcNAc
# Method in brief: as §1
# Kdn(a2-6)Gal(b1-4)GlcNAc = molecular target: Kdn(a2-6)Gal(b1-4)GlcNAc
# Method in brief: as §1
# [7] = molecular target: Man(a1-2)Man(a1-2)Man(a1-3)Man
# Method in brief: as §1
# [8] = molecular target: Man(a1-2)Man(a1-2)Man(a1-6)[Man(a1-3)]Man
# Method in brief: as §1
# Man(a1-2)Man(a1-3)Man = molecular target: Man(a1-2)Man(a1-3)Man
# Method in brief: as §1
# [9] = molecular target: Man(a1-2)Man(a1-3)[Man(a1-2)Man(a1-6)]Man
# Method in brief: as §1
# [10] = molecular target: Man(a1-2)Man(a1-3)[Man(a1-2)Man(a1-6)]Man(a1-6)[Man(a1-2)Man(a1-2)Man(a1-3)]Man
# Method in brief: as §1
# [11] = molecular target: Man(a1-2)Man(a1-3)[Man(a1-2)Man(a1-6)]Man(a1-6)[Man(a1-2)Man(a1-2)Man(a1-3)]Man(b1-4)GlcNAc(b1-4)GlcNAc
# Method in brief: as §1
# [12] = molecular target: Man(a1-2)Man(a1-3)[Man(a1-6)]Man(a1-6)[Man(a1-2)Man(a1-3)]Man(b1-4)GlcNAc(b1-4)GlcNAc
# Method in brief: as §1
# [13] = molecular target: Man(a1-2)Man(a1-6)[Man(a1-3)]Man(a1-6)[Man(a1-2)Man(a1-2)Man(a1-3)]Man
# Method in brief: as §1
# [14] = molecular target: Man(a1-2)Man(a1-6)[Man(a1-3)]Man(a1-6)[Man(a1-2)Man(a1-2)Man(a1-3)]Man(b1-4)GlcNAc(b1-4)GlcNAc
# Method in brief: as §1
# Man(a1-3)[Man(a1-6)]Man = molecular target: Man(a1-3)[Man(a1-6)]Man
# Method in brief: as §1
# [15] = molecular target: Man(a1-3)[Man(a1-6)]Man(a1-6)[Man(a1-2)Man(a1-3)]Man(b1-4)GlcNAc(b1-4)GlcNAc
# Method in brief: as §1
# [16] = molecular target: Man(a1-3)[Man(a1-6)]Man(a1-6)[Man(a1-3)]Man
# Method in brief: as §1
# [17] = molecular target: Man(a1-3)[Man(a1-6)]Man(a1-6)[Man(a1-3)]Man(b1-4)GlcNAc(b1-4)GlcNAc
# Method in brief: as §1
# [18] = molecular target: Man(a1-3)[Man(a1-6)]Man(b1-4)GlcNAc(b1-4)GlcNAc
# Method in brief: as §1
# [19] = molecular target: Man(a1-3)[Man(a1-6)]Man(b1-4)GlcNAc(b1-4)[Fuc(a1-6)]GlcNAc
# Method in brief: as §1
# Man(a1-6)Man = molecular target: Man(a1-6)Man
# Method in brief: as §1
# Man(b1-4)GlcNAc = molecular target: Man(b1-4)GlcNAc
# Method in brief: as §1
# MurNAc(b1-4)GlcNAc = molecular target: MurNAc(b1-4)GlcNAc
# Method in brief: as §1
# Neu5Ac(a2-3)Gal = molecular target: Neu5Ac(a2-3)Gal
# Method in brief: as §1
# [20] = molecular target: Neu5Ac(a2-3)Gal(b1-3)GalNAc
# Method in brief: as §1
# [21] = molecular target: Neu5Ac(a2-3)Gal(b1-3)GalNAc(b1-3)Gal(a1-4)Gal(b1-4)Glc
# Method in brief: as §1
# [22] = molecular target: Neu5Ac(a2-3)Gal(b1-3)GalNAc(b1-4)[Neu5Ac(a2-3)]Gal(b1-4)Glc
# Method in brief: as §1
# [23] = molecular target: Neu5Ac(a2-3)Gal(b1-3)GalNAc(b1-4)[Neu5Ac(a2-8)Neu5Ac(a2-3)]Gal(b1-4)Glc
# Method in brief: as §1
# [24] = molecular target: Neu5Ac(a2-3)Gal(b1-3)GalNAc6S
# Method in brief: as §1
# [25] = molecular target: Neu5Ac(a2-3)Gal(b1-3)GlcNAc
# Method in brief: as §1
# [26] = molecular target: Neu5Ac(a2-3)Gal(b1-3)GlcNAc(b1-2)Man
# Method in brief: as §1
# [27] = molecular target: Neu5Ac(a2-3)Gal(b1-3)GlcNAc(b1-2)Man(a1-3)[GlcNAc(b1-4)][Neu5Ac(a2-3)Gal(b1-3)GlcNAc(b1-2)Man(a1-6)]Man(b1-4)GlcNAc(b1-4)GlcNAc
# Method in brief: as §1
# [28] = molecular target: Neu5Ac(a2-3)Gal(b1-3)GlcNAc(b1-2)Man(a1-3)[Neu5Ac(a2-3)Gal(b1-3)GlcNAc(b1-2)Man(a1-6)]Man(b1-4)GlcNAc(b1-4)GlcNAc
# Method in brief: as §1
# [29] = molecular target: Neu5Ac(a2-3)Gal(b1-3)GlcNAc(b1-3)Gal(b1-3)GlcNAc
# Method in brief: as §1
# [30] = molecular target: Neu5Ac(a2-3)Gal(b1-3)GlcNAc(b1-3)Gal(b1-4)GlcNAc
# Method in brief: as §1
# [31] = molecular target: Neu5Ac(a2-3)Gal(b1-3)GlcNAc(b1-3)GalNAc
# Method in brief: as §1
# [32] = molecular target: Neu5Ac(a2-3)Gal(b1-3)GlcNAc(b1-4)Gal(b1-4)Glc
# Method in brief: as §1
# [33] = molecular target: Neu5Ac(a2-3)Gal(b1-3)GlcNAc(b1-6)GalNAc
# Method in brief: as §1
binder,measurement,setting,value
B1,glycan array binding signal (z-score),[1],8.12
same,glycan array binding signal (z-score),[2],13.9
same,glycan array binding signal (z-score),[3],-0.07
same,glycan array binding signal (z-score),[4],-0.053
same,glycan array binding signal (z-score),GlcNAc(b1-6)GalNAc,-0.169
same,glycan array binding signal (z-score),[5],-0.073
same,glycan array binding signal (z-score),Kdn(a2-3)Gal(b1-3)GalNAc,-0.107
same,glycan array binding signal (z-score),Kdn(a2-3)Gal(b1-3)GlcNAc,-0.09
same,glycan array binding signal (z-score),Kdn(a2-3)Gal(b1-4)Glc,-0.211
same,glycan array binding signal (z-score),Kdn(a2-3)Gal(b1-4)GlcNAc,0.094
same,glycan array binding signal (z-score),[6],-0.19
same,glycan array binding signal (z-score),Kdn(a2-6)Gal(b1-4)GlcNAc,-0.226
same,glycan array binding signal (z-score),[7],0.026
same,glycan array binding signal (z-score),[8],-0.193
same,glycan array binding signal (z-score),Man(a1-2)Man(a1-3)Man,-0.062
same,glycan array binding signal (z-score),[9],-0.056
same,glycan array binding signal (z-score),[10],-0.095
same,glycan array binding signal (z-score),[11],-0.191
same,glycan array binding signal (z-score),[12],-0.177
same,glycan array binding signal (z-score),[13],-0.157
same,glycan array binding signal (z-score),[14],-0.139
same,glycan array binding signal (z-score),Man(a1-3)[Man(a1-6)]Man,0.092
same,glycan array binding signal (z-score),[15],-0.056
same,glycan array binding signal (z-score),[16],-0.103
same,glycan array binding signal (z-score),[17],-0.08
same,glycan array binding signal (z-score),[18],0.046
same,glycan array binding signal (z-score),[19],0.07
same,glycan array binding signal (z-score),Man(a1-6)Man,-0.07
same,glycan array binding signal (z-score),Man(b1-4)GlcNAc,-0.112
same,glycan array binding signal (z-score),MurNAc(b1-4)GlcNAc,1.49
same,glycan array binding signal (z-score),Neu5Ac(a2-3)Gal,-0.124
same,glycan array binding signal (z-score),[20],-0.037
same,glycan array binding signal (z-score),[21],-0.111
same,glycan array binding signal (z-score),[22],-0.145
same,glycan array binding signal (z-score),[23],0.022
same,glycan array binding signal (z-score),[24],-0.114
same,glycan array binding signal (z-score),[25],-0.039
same,glycan array binding signal (z-score),[26],-0.154
same,glycan array binding signal (z-score),[27],-0.074
same,glycan array binding signal (z-score),[28],-0.117
same,glycan array binding signal (z-score),[29],0.13
same,glycan array binding signal (z-score),[30],-0.17
same,glycan array binding signal (z-score),[31],-0.102
same,glycan array binding signal (z-score),[32],-0.138
same,glycan array binding signal (z-score),[33],-0.113
